Results on 28 molecules are retold here after PubChem BioAssay AID1745853 (National Center for Advancing Translational Sciences (NCATS), 2022).

Each structure is given as a SMILES string. The list shows a part of the results. These are further read-outs of the screen, such as a control signal, another cell line or another target. No call is given for them.

What all share (assay): Primary Screen for Target Class Profiling of Small Molecule Inhibitors of Methyltransferases
Assay [1] addresses Glycine N-methyltransferase (Homo sapiens) (UniProt Q14749). Particulars: purified enzyme, MTase-Glo SAH luminescence; measured here: GNMT inhibition; at 40 µM; stronger effect = lower value. The gist of the method:
(§1)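 Each enzyme was reacted with SAM and its substrate, with compounds tested once at 40 uM; SAH formed was read by MTase-Glo luminescence.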

Assay [2] concerns the target Guanidinoacetate N-methyltransferase (Homo sapiens) (UniProt Q14353). Particulars: purified enzyme, MTase-Glo SAH luminescence; measured here: GAMT inhibition; at 40 µM; stronger effect = lower value. The gist of the method:
as §1

Assay [3] addresses Histamine N-methyltransferase (Homo sapiens) (UniProt P50135). Particulars: purified enzyme, MTase-Glo SAH luminescence; measured here: HNMT inhibition; at 40 µM; stronger effect = lower value. The gist of the method: as §1
Assay [4] deals with Nicotinamide N-methyltransferase (Homo sapiens) (UniProt P40261). Particulars: purified enzyme, MTase-Glo SAH luminescence; measured here: NNMT inhibition; at 40 µM; stronger effect = lower value. In short, it runs like this:
as §1

Assay [5] has as its target Phenylethanolamine N-methyltransferase (Homo sapiens) (UniProt P11086). Particulars: purified enzyme, MTase-Glo SAH luminescence; measured here: PNMT inhibition; at 40 µM; stronger effect = lower value. The gist of the method: as §1
On the % scale 0 is the no-effect control and ±100 the full control effect.

Turning to `CCCCNC(=O)CCc1nnc2n(Cc3ccccc3Cl)c(=O)c3ccccc3n12`, the activity change, negative = inhibition was -5.98% in assay [1]; 1.58% in assay [2]; 3.25% in assay [3]; 0.447% in assay [4]; -3.17% in assay [5].

As for `COC(=O)[C@H]1CCCN1C(=O)[C@@H]1C[C@H](NC(=O)Nc2ccc(F)cc2F)CN1C(=O)CSC`, the activity change, negative = inhibition in assay [1] was -2.67%; in assay [2] it was -1.06%; in assay [3], 0.303%; in assay [4], 1.44%; in assay [5], -2.3%.

For `O=c1c2nc(Nc3ccc(C(F)(F)F)cc3)ccc2ncn1Cc1ccccn1`, the activity change, negative = inhibition is -20.4% in assay [1]; -12.7% in assay [2]; -16.1% in assay [3]; -20.7% in assay [4]; -1.71% in assay [5].

Consider `O=C1Nc2ccccc2C12CN([S+](=O)([O-])c1ccccc1)C2`, for which the activity change, negative = inhibition is -10% in assay [1]; -9.7% in assay [2]; -6.12% in assay [3]; -12.2% in assay [4]; -13.6% in assay [5].

As for `CCCn1c(=O)c2ccc(C(=O)NC3CCCC3)cc2n2c(SCC(=O)NC(C)C)nnc12`, the activity change, negative = inhibition was 12.6% in assay [1]; 0% in assay [2]; 13.3% in assay [3]; 14% in assay [4]; 12.6% in assay [5].

As to `COc1ccc(CCNC(=O)c2nnn3cc(C)[nH]c(=O)c23)cc1OC`, the activity change, negative = inhibition is -13.5% in assay [1]; 0.419% in assay [2]; 5.48% in assay [3]; 6.72% in assay [4]; 6.75% in assay [5].

Regarding `Cc1ccc(NC(=O)Cn2nc3n(CCc4ccccc4)c(=O)c4ccccc4n3c2=O)c(C)c1`, the activity change, negative = inhibition in assay [1] amounted to 4.95%; in assay [2], 0.769%; in assay [3], 6.49%; in assay [4] it was 7.68%; in assay [5], 4.05%.

For the molecule `COCCCN1C(=O)c2nc3ccccc3n2CC1(C)C(=O)NC1CCCCC1` (stereo not given), the activity change, negative = inhibition was determined as 5.54% in assay [1]; 7.75% in assay [2]; 8.38% in assay [3]; 7.12% in assay [4]; 0.24% in assay [5].

`Cn1cc(-c2c[nH]c3ncnc(N4CCOCC4)c23)cn1`: the activity change, negative = inhibition in assay [1] is -8.62%; in assay [2] it was -6.99%; in assay [3], -10.7%; in assay [4], -34.7%; in assay [5] it was -16%.

On to `Cc1ccc(CNC(=O)CCn2ccc3cc(S(=O)(=O)N4CCCCC4)ccc32)o1`, for which the activity change, negative = inhibition is -0.113% in assay [1]; 4.25% in assay [2]; -2.9% in assay [3]; 0.507% in assay [4]; -2.57% in assay [5].

For `CN(Cc1cnn(C)c1)C(=O)c1csc2nc(-c3cccc(C(F)(F)F)c3)cn12`, the activity change, negative = inhibition in assay [1] is -6.37%; in assay [2], -5.51%; in assay [3] it was -2.81%; in assay [4], -4.86%; in assay [5], 1.03%.

`O=C1N(c2ccccc2)c2ccccc2C1(Cc1ccncc1)Cc1ccncc1`: the activity change, negative = inhibition in assay [1] is 2.04%; in assay [2], 9.91%; in assay [3], 10.1%; in assay [4] it was -15.3%; in assay [5], -1.46%.

For `COc1ccc(C[C@H](NC(=O)[C@@H]2C[C@H](NC(=O)Nc3ccc(F)cc3F)CN2C(=O)CC(C)(C)C)C(N)=O)cc1`, the activity change, negative = inhibition is -0.396% in assay [1]; 0.347% in assay [2]; -0.561% in assay [3]; -3.95% in assay [4]; -4.7% in assay [5].

`CCCn1c(=O)c2ccc(C(=O)NC(C)C)cc2n2c(SCC(=O)Nc3ccccc3F)nnc12`: the activity change, negative = inhibition was -0.64% in assay [1]; 2.46% in assay [2]; 2.54% in assay [3]; -5.55% in assay [4]; -1.57% in assay [5].

Consider `COC(=O)C[C@H]1[C@]2(C)C3=C(C)[C@H](c4ccoc4)C[C@H]3O[C@@H]2[C@H](O)C2[C@](C)(C(=O)OC)C=CC(=O)[C@@]21C` (stereo not given in full), for which the activity change, negative = inhibition in assay [1] is 0%; in assay [2], 0.172%; in assay [3] it was 1.56%; in assay [4] it was -12.1%; in assay [5], 3.36%.

For the molecule `CCC(=O)NCC1Cn2cccc2C(=O)N1Cc1ccccc1` (stereo not given), the activity change, negative = inhibition was determined as 0.618% in assay [1]; 4.19% in assay [2]; 3.39% in assay [3]; 2.95% in assay [4]; 1.98% in assay [5].

For `Cc1cc2c(cc3n2CC(C)(C(=O)NC2CCCCC2)N(Cc2cccs2)C3=O)o1` (stereo not given), the activity change, negative = inhibition was -9.38% in assay [1]; 5.65% in assay [2]; -7.72% in assay [3]; -23.1% in assay [4]; -4.93% in assay [5].

Turning to `CCCn1c(=O)c2[nH]c(-c3ccc(S(=O)(=O)O)cc3)nc2n(CCC)c1=O`, the activity change, negative = inhibition is -17.3% in assay [1]; 5.54% in assay [2]; -0.168% in assay [3]; -6.23% in assay [4]; 6.19% in assay [5].

Consider `O=C(CCc1nnc2n(Cc3ccccc3)c(=O)c3ccccc3n12)N1CCN(c2ccccc2F)CC1`, for which the activity change, negative = inhibition in assay [1] was -3.31%; in assay [2], 3.53%; in assay [3], 2.91%; in assay [4], -6.32%; in assay [5] it was -2.21%.

In the case of `Cc1ccc2n1CCN(C(=O)Nc1ccc3c(c1)OCCO3)C2C(C)C` (stereo not given), the activity change, negative = inhibition is -2.89% in assay [1]; 3.46% in assay [2]; -6.08% in assay [3]; -9.03% in assay [4]; -5.69% in assay [5].

With `Cc1cc(-n2c(=O)[nH]c(=O)n(C)c2=O)ccc1Oc1ccc(SC(F)(F)F)cc1`, the activity change, negative = inhibition in assay [1] is -0.895%; in assay [2] it was -0.684%; in assay [3] it was 11.3%; in assay [4], -29.6%; in assay [5], -10.7%.

Take `COc1ccccc1N1CCCc2ncc(C(=O)N3CCN(C(C)=O)CC3)cc21`: the activity change, negative = inhibition in assay [1] was -14.5%; in assay [2], -8.34%; in assay [3], -5.43%; in assay [4] it was -9.86%; in assay [5] it was -14.3%.

Take `COc1ccccc1N1CCN([C@@H]2[C@H](O)[C@H](CO)O[C@@H]2CN(Cc2ccc(F)cc2)Cc2ccc(F)cc2)CC1`: the activity change, negative = inhibition is -5.78% in assay [1]; -2.08% in assay [2]; -1.54% in assay [3]; -8.05% in assay [4]; 0.691% in assay [5].

For the molecule `CN(Cc1ccc(F)cc1)C(=O)c1cccc(Cl)c1`, the activity change, negative = inhibition in assay [1] is -6.82%; in assay [2] it was -11.5%; in assay [3], -2.88%; in assay [4] it was -21.9%; in assay [5] it was -11.3%.

Turning to `COc1ccccc1C(C)N(C)C(=O)c1cccc(CCC(C)(C)O)c1` (stereo not given), the activity change, negative = inhibition in assay [1] was -1.42%; in assay [2], -1.6%; in assay [3] it was -0.104%; in assay [4], -6.58%; in assay [5], 0.51%.

In the case of `CN1C[C@@H]2CC[C@H](CC1=O)N2C(=O)c1cnn2cc(CCO)cnc12`, the activity change, negative = inhibition was -3.54% in assay [1]; -6.96% in assay [2]; -2.82% in assay [3]; -6.01% in assay [4]; -9.3% in assay [5].

As for `CCCSCCCN1C(=O)c2cc(-c3ccc(OC)cc3)nn2CC1(C)C(=O)NCc1ccccc1` (stereo not given), the activity change, negative = inhibition in assay [1] was -1.57%; in assay [2], 0%; in assay [3], -0.554%; in assay [4] it was 1.79%; in assay [5], -2.93%.

For `O=C(NCCN1CCCC1)c1c(OCC2CC2)cc(=O)n2c1CCOCC2`, the activity change, negative = inhibition in assay [1] was -5.8%; in assay [2], -9.96%; in assay [3], -4.92%; in assay [4], -15.2%; in assay [5] it was -10.3%.
